Here are results for 31 molecules from publication PMC9911399, “Two distinct binding modes provide the RNA-binding protein RbFox with extraordinary sequence specificity”.

Residue numbers refer to the chain shown, from its start. The list shows a part of the results.

Sequences and labels used below:
B1: GCCCACC (DNA:RNA)
RNA: GGGAGACCGGAAUUCAGAUUGUCCGCCCACCUUAAAUCCCGUCGUAGCCACCA
DNA 1: CAATCTGAATTCCGGTCTCCC
DNA 2: TGGTGGCTACGACGGGATT
B2: UAGCGUU (DNA:RNA)
RNA: B1 RNA with G25U, C26A, C27G, A29G, C30U, C31U
DNA 1: CAATCTGAATTCCGGTCTCCC
DNA 2: TGGTGGCTACGACGGGATT
B3: GAUCAAG (DNA:RNA)
RNA: B1 RNA with C26A, C27U, C30A, C31G
DNA 1: CAATCTGAATTCCGGTCTCCC
DNA 2: TGGTGGCTACGACGGGATT
B4: GGAGCCU (DNA:RNA)
RNA: B1 RNA with C26G, C27A, C28G, A29C, C31U
DNA 1: CAATCTGAATTCCGGTCTCCC
DNA 2: TGGTGGCTACGACGGGATT
B5: GCUCGUG (DNA:RNA)
RNA: B1 RNA with C27U, A29G, C30U, C31G
DNA 1: CAATCTGAATTCCGGTCTCCC
DNA 2: TGGTGGCTACGACGGGATT
B6: GCUCUGA (DNA:RNA)
RNA: B1 RNA with C27U, A29U, C30G, C31A
DNA 1: CAATCTGAATTCCGGTCTCCC
DNA 2: TGGTGGCTACGACGGGATT
B7: AUUUUGG (DNA:RNA)
RNA: GGGAGACCGGAAUUCAGAUUGUCCAUUUUGGUUAAAUCCCGUCGUAGCCACCA
DNA 1: CAATCTGAATTCCGGTCTCCC
DNA 2: TGGTGGCTACGACGGGATT
B8: AUCCCCA (DNA:RNA)
RNA: B1 RNA with G25A, C26U, A29C, C31A
DNA 1: CAATCTGAATTCCGGTCTCCC
DNA 2: TGGTGGCTACGACGGGATT
B9: ACACAGC (DNA:RNA)
RNA: B1 RNA with G25A, C27A, C30G
DNA 1: CAATCTGAATTCCGGTCTCCC
DNA 2: TGGTGGCTACGACGGGATT
B10: CCUGUCG (DNA:RNA)
RNA: B7 RNA with A25C, U26C, U28G, G30C
DNA 1: CAATCTGAATTCCGGTCTCCC
DNA 2: TGGTGGCTACGACGGGATT
B11: GGUUCGU (DNA:RNA)
RNA: B7 RNA with A25G, U26G, U29C, G31U
DNA 1: CAATCTGAATTCCGGTCTCCC
DNA 2: TGGTGGCTACGACGGGATT
B12: UAUGUCU (DNA:RNA)
RNA: B7 RNA with A25U, U26A, U28G, G30C, G31U
DNA 1: CAATCTGAATTCCGGTCTCCC
DNA 2: TGGTGGCTACGACGGGATT
B13: CGUAAUG (DNA:RNA)
RNA: B7 RNA with A25C, U26G, U28A, U29A, G30U
DNA 1: CAATCTGAATTCCGGTCTCCC
DNA 2: TGGTGGCTACGACGGGATT
B14: UGAGCGU (DNA:RNA)
RNA: B7 RNA with A25U, U26G, U27A, U28G, U29C, G31U
DNA 1: CAATCTGAATTCCGGTCTCCC
DNA 2: TGGTGGCTACGACGGGATT
B15: CACGCAU (DNA:RNA)
RNA: B1 RNA with G25C, C26A, C28G, A29C, C30A, C31U
DNA 1: CAATCTGAATTCCGGTCTCCC
DNA 2: TGGTGGCTACGACGGGATT
B16: UUUUAUU (DNA:RNA)
RNA: B7 RNA with A25U, U29A, G30U, G31U
DNA 1: CAATCTGAATTCCGGTCTCCC
DNA 2: TGGTGGCTACGACGGGATT
B17: CGUGGCU (DNA:RNA)
RNA: B7 RNA with A25C, U26G, U28G, U29G, G30C, G31U
DNA 1: CAATCTGAATTCCGGTCTCCC
DNA 2: TGGTGGCTACGACGGGATT
B18: AUUAUAU (DNA:RNA)
RNA: B7 RNA with U28A, G30A, G31U
DNA 1: CAATCTGAATTCCGGTCTCCC
DNA 2: TGGTGGCTACGACGGGATT
B19: AGAGAAA (DNA:RNA)
RNA: B7 RNA with U26G, U27A, U28G, U29A, G30A, G31A
DNA 1: CAATCTGAATTCCGGTCTCCC
DNA 2: TGGTGGCTACGACGGGATT
B20: UUAUGAA (DNA:RNA)
RNA: B7 RNA with A25U, U27A, U29G, G30A, G31A
DNA 1: CAATCTGAATTCCGGTCTCCC
DNA 2: TGGTGGCTACGACGGGATT
B21: UGAACGC (DNA:RNA)
RNA: B7 RNA with A25U, U26G, U27A, U28A, U29C, G31C
DNA 1: CAATCTGAATTCCGGTCTCCC
DNA 2: TGGTGGCTACGACGGGATT
B22: AUCCGAU (DNA:RNA)
RNA: B7 RNA with U27C, U28C, U29G, G30A, G31U
DNA 1: CAATCTGAATTCCGGTCTCCC
DNA 2: TGGTGGCTACGACGGGATT
B23: ACACUUU (DNA:RNA)
RNA: B7 RNA with U26C, U27A, U28C, G30U, G31U
DNA 1: CAATCTGAATTCCGGTCTCCC
DNA 2: TGGTGGCTACGACGGGATT
B24: GUAGCUU (DNA:RNA)
RNA: B7 RNA with A25G, U27A, U28G, U29C, G30U, G31U
DNA 1: CAATCTGAATTCCGGTCTCCC
DNA 2: TGGTGGCTACGACGGGATT
B25: UGGUCAC (DNA:RNA)
RNA: B7 RNA with A25U, U26G, U27G, U29C, G30A, G31C
DNA 1: CAATCTGAATTCCGGTCTCCC
DNA 2: TGGTGGCTACGACGGGATT
B26: GCUUACG (DNA:RNA)
RNA: B1 RNA with C27U, C28U, C31G
DNA 1: CAATCTGAATTCCGGTCTCCC
DNA 2: TGGTGGCTACGACGGGATT
B27: ACGUAUU (DNA:RNA)
RNA: B7 RNA with U26C, U27G, U29A, G30U, G31U
DNA 1: CAATCTGAATTCCGGTCTCCC
DNA 2: TGGTGGCTACGACGGGATT
B28: GGGCGUU (DNA:RNA)
RNA: B1 RNA with C26G, C27G, A29G, C30U, C31U
DNA 1: CAATCTGAATTCCGGTCTCCC
DNA 2: TGGTGGCTACGACGGGATT
B29: CAUCGAG (DNA:RNA)
RNA: B7 RNA with A25C, U26A, U28C, U29G, G30A
DNA 1: CAATCTGAATTCCGGTCTCCC
DNA 2: TGGTGGCTACGACGGGATT
B30: CUAGCCU (DNA:RNA)
RNA: B7 RNA with A25C, U27A, U28G, U29C, G30C, G31U
DNA 1: CAATCTGAATTCCGGTCTCCC
DNA 2: TGGTGGCTACGACGGGATT
B31: GACAAGA (DNA:RNA)
RNA: B1 RNA with C26A, C28A, C30G, C31A
DNA 1: CAATCTGAATTCCGGTCTCCC
DNA 2: TGGTGGCTACGACGGGATT

This assay concerns the target T1, RBFOX1 RRM (Homo sapiens, UniProt Q9NWB1 109-208).
T1 sequence: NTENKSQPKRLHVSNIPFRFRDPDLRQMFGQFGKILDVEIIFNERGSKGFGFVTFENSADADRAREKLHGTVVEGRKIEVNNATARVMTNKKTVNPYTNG
Kind of assay: EMSA; HiTS-Eq, 1 nM pool, 10 min; buffer printed only for the single-RNA assays: 10 mM Tris pH 7.5, 150 mM NaCl, 3.4 mM EDTA, 0.001% NP-40, 30 C. The note with it: tags: His6 N-terminal (pET28a); label: 5' 32P. Put shortly: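 A pool of RNA with 7 randomized nucleotides, 5′-radiolabelled and with DNA-annealed flanks, was equilibrated at 1 nM for 10 min in 50 µL with purified RbFox RRM, wild type or mutant, across increasing protein concentrations. Free RNA was separated by 8% native PAGE, excised, reverse-transcribed, barcoded by PCR and sequenced. Relative association constants were obtained from read-count changes of each RNA species versus the control reaction and normalised to the cognate motif.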
(In general: A gel shift assay detects complexes by their altered migration in electrophoresis.)
B1: the binding signal is 0.00588 KA relative to UGCAUGU. On to B2, for which the binding signal was 0.0117 KA relative to UGCAUGU. Regarding B3, the binding signal is 0.0079 KA relative to UGCAUGU. For B4, the binding signal is 0.0142 KA relative to UGCAUGU.

Consider B5, for which the binding signal was 0.0268 KA relative to UGCAUGU. For B6, the binding signal was 0.0253 KA relative to UGCAUGU.

Turning to B7, the binding signal was 0.00906 KA relative to UGCAUGU.

For B8, the binding signal was 0.000607 KA relative to UGCAUGU. Consider B9, for which the binding signal was 0.000341 KA relative to UGCAUGU. In the case of B10, the binding signal is 0.0121 KA relative to UGCAUGU. B11: the binding signal was 0.0165 KA relative to UGCAUGU.

For B12, the binding signal was 0.0135 KA relative to UGCAUGU. On to B13, for which the binding signal is 0.0127 KA relative to UGCAUGU. In the case of B14, the binding signal is 0.0215 KA relative to UGCAUGU. With B15 the figure was 0.00481 KA relative to UGCAUGU. For B16, the binding signal is 0.00461 KA relative to UGCAUGU. With B17 the figure was 0.0195 KA relative to UGCAUGU.

As for B18, the binding signal is 0.000815 KA relative to UGCAUGU. For the molecule B19, the binding signal was 0.00515 KA relative to UGCAUGU. B20: the binding signal was 0.014 KA relative to UGCAUGU.

Take B21: the binding signal is 0.016 KA relative to UGCAUGU. As to B22, the binding signal was 0.00393 KA relative to UGCAUGU. Take B23: the binding signal is 0.00141 KA relative to UGCAUGU. Take B24: the binding signal is 0.0122 KA relative to UGCAUGU. As for B25, the binding signal is 0.0142 KA relative to UGCAUGU. As for B26, the binding signal was 0.0122 KA relative to UGCAUGU.

Consider B27, for which the binding signal is 0.00231 KA relative to UGCAUGU.

Take B28: the binding signal is 0.0253 KA relative to UGCAUGU.

Regarding B29, the binding signal is 0.00984 KA relative to UGCAUGU. For the molecule B30, the binding signal was 0.00821 KA relative to UGCAUGU.

Turning to B31, the binding signal was 0.00664 KA relative to UGCAUGU.
